{
  "source": "PubChem BioAssay AID651820",
  "about": "(National Center for Advancing Translational Sciences (NCATS), 2012)",
  "note": "Values joined by “and” are separate entries in the source; they are usually repeats but may differ in a detail not shown here. Identical values can stand only once. The whole screen tested about 340,000 compounds, of which about 12,000 (3.5%) were called active. This list was built around the results that the source calls inconclusive (neither active nor inactive); the mix of calls is not that of the screen. The call rests on the fitted dose curve; in most records, active means well fitted inhibition curve with a large enough effect; inconclusive means small, poorly fitted or top-dose-only effect, or another doubt; inactive means no such curve, though single readings can be large or run the other way. A potency beside an inconclusive call is a rough fit, not a confirmed value. Potency means the concentration at half of the fitted maximal effect; tags describe the fitted curve by direction and shape.",
  "data": [
    {"assay": "qHTS Assay for Inhibitors of Hepatitis C Virus (HCV)", "details": "Huh7.5.1 HCVcc-Cre (HCVcc is cell-culture hepatitis C virus) infection, luciferase reporter, 44 h; series mostly up to 41.8 µM", "summary_of_the_method": "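Luciferase read-out (15 sec integration) after a 15 min room-temperature substrate step quantifies HCVcc-Cre infection. Cells, 1,000 per well, had compound added 4 h post-plating, then virus at ~0.5 moi, and were cultured 44 h.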", "values": [
      {"smiles": "Nc1ccc2c(c1)C(O)c1cccc(C(=O)O)c1-2", "note": "(configuration not stated)", "Potency": "inactive"},
      {"smiles": "CCOC(=O)c1cnc2c(C)cccc2c1NCc1ccco1", "Potency": "active: 11.2 µM"},
      {"smiles": "COc1ccc(S(=O)(=O)N2CCN(Cc3ccc(Cl)cc3)CC2)cc1", "Potency": "inconclusive: 10 µM [inhibitor, partial curve]"},
      {"smiles": "COc1cccc(-c2nc(C(=O)NCC3CCCO3)cc3c2[nH]c2ccccc23)c1", "note": "(configuration not stated)", "Potency": "active: 11.2 µM"},
      {"smiles": "O=C(CCN1C(=O)/C(=C/c2ccc(F)cc2)SC1=S)N[C@@H](CO)Cc1ccccc1", "Potency": "inconclusive: 10 µM [inhibitor, single point]"},
      {"smiles": "COc1ccc(NC(=S)/N=C(\\N)Nc2nc(C)c3ccc(C)cc3n2)cc1", "Potency": "active: 11.2 µM"},
      {"smiles": "O=C(/C=C/c1cccnc1)/C=C/c1cccnc1", "Potency": "inconclusive: 6.31 µM [inhibitor, full curve]"},
      {"smiles": "COC(=O)C1=C(c2ccc(F)cc2OCc2ccccc2)C[C@@H]2CC[C@H]1N2C(=O)NCCc1ccc(F)cc1", "Potency": "inconclusive: 22.4 µM [inhibitor, single point]"},
      {"smiles": "COC(=O)c1cc(-c2ccc3c(c2)OCO3)nc2ccccc12", "Potency": "inconclusive: 11.2 µM [inhibitor, partial curve]"},
      {"smiles": "COc1ccccc1C(=O)Nc1ccc2c3c(cccc13)CC2", "Potency": "inconclusive: 7.94 µM [inhibitor, partial curve]"},
      {"smiles": "CCN(CC)c1ccc(NC(=O)Nc2ccccc2)cc1", "Potency": "inactive"},
      {"smiles": "CCCN(CCC)c1nc(N)c(C#N)c(CC#N)c1C#N", "Potency": "inconclusive: 31.6 µM [inhibitor, single point]"},
      {"smiles": "O=C(Nc1ccccc1)c1ccc(C(=O)Nc2ccccc2)nc1", "Potency": "inactive"},
      {"smiles": "COC(=O)C1=C(c2ccc(F)cc2OCc2ccccc2)C[C@@H]2CC[C@H]1N2C(=O)NCc1ccc(OC)cc1", "Potency": "inconclusive: 12.6 µM [inhibitor, single point]"},
      {"smiles": "CCc1ccccc1NC1c2ccccc2C(=O)N1Cc1ccco1", "note": "(configuration not stated)", "Potency": "inactive"},
      {"smiles": "COc1cc([N+](=O)[O-])ccc1NC(=O)CC1SC(=Nc2ccc(F)cc2)N(CCC2=CCCCC2)C1=O", "note": "(configuration not stated)", "Potency": "inconclusive: 5.62 µM [inhibitor, single point]"},
      {"smiles": "COc1cc(OC)c(C2CC(=O)N3CN(c4ccccc4C)CSC3=C2C#N)cc1OC", "note": "(configuration not stated)", "Potency": "inconclusive: 31.6 µM [inhibitor, single point]"},
      {"smiles": "Cc1ccc(CN(C(=O)Cn2nnc3ccccc32)C(C(=O)NCc2ccco2)c2cccs2)cc1", "note": "(configuration not stated)", "Potency": "inconclusive: 31.6 µM [inhibitor, single point]"},
      {"smiles": "CCOC(=O)C1=C(C)N(c2ccc(C)c(C)c2)C(=O)/C1=C\\c1ccco1", "Potency": "inconclusive: 5.62 µM [inhibitor, partial curve]"},
      {"smiles": "Cc1cc(C)c(OCCCNCc2ccccc2)c(Br)c1", "Potency": "inconclusive: 14.1 µM [inhibitor, single point]"},
      {"smiles": "CN1CCN(c2ccc(Cl)cc2NC(=O)c2cccc(S(=O)(=O)N(C)C)c2)CC1", "Potency": "inactive and inconclusive: 31.6 µM [inhibitor, single point]"},
      {"smiles": "CCCCCc1cc(=O)oc2c(C(CCN3CCCC3)c3cc(OC)c(OC)c(OC)c3)c(OC)cc(OC)c12", "note": "(configuration not stated)", "Potency": "inconclusive: 22.4 µM [inhibitor, single point]"},
      {"smiles": "CCc1cc2c(COC(=O)c3cccc(S(C)(=O)=O)c3)cc(=O)oc2cc1O", "Potency": "inconclusive: 35.5 µM [inhibitor, partial curve, poor fit]"},
      {"smiles": "CN(Cc1ccccc1)C(=O)c1cccc(NC(=O)C2CCCN(C(=O)OC(C)(C)C)C2)c1", "note": "(configuration not stated)", "Potency": "inconclusive: 11.2 µM [inhibitor, partial curve]"},
      {"smiles": "COc1ccc2ncc(S(=O)(=O)c3ccccc3)c(N3CCN(c4ccccc4)CC3)c2c1", "Potency": "inconclusive: 31.6 µM [inhibitor, single point]"},
      {"smiles": "COc1cc([N+](=O)[O-])ccc1NC(=S)Nc1cccc(C(=O)O)c1", "Potency": "inconclusive: 31.6 µM [inhibitor, single point]"},
      {"smiles": "CCCc1cc2c(OC(=O)CC)c(-c3ccc(C(=O)OCC)o3)c(=O)oc2cc1OC", "Potency": "inconclusive: 11.2 µM [inhibitor, partial curve]"},
      {"smiles": "COc1ccccc1C1N(c2cc(Cl)ccc2OC)C(=O)C2CCCN21", "note": "(configuration not stated)", "Potency": "inactive"},
      {"smiles": "O=C(c1cccs1)N1CCN(c2nnc(-c3ccccc3)c3ccccc23)CC1", "Potency": "inconclusive: 10 µM [inhibitor, partial curve]"},
      {"smiles": "CSc1nnc2c3ccccc3n(CCc3ccccc3)c2n1", "Potency": "inconclusive: 11.2 µM [inhibitor, partial curve]"},
      {"smiles": "Cc1ccc(NC(=O)C2CCN(S(=O)(=O)c3ccc4c(c3)NC(=O)C(C)S4)CC2)c(Cl)c1", "note": "(configuration not stated)", "Potency": "active: 11.2 µM"},
      {"smiles": "O=C(COC(=O)c1cn(-c2ccccc2)nc1-c1cccs1)NC1CC1", "Potency": "inconclusive: 2.82 µM [inhibitor, full curve]"},
      {"smiles": "COc1ccc(CN(C)Cc2nc(Cc3ccccc3Cl)no2)cc1OC", "Potency": "inconclusive: 12.6 µM [inhibitor, partial curve]"},
      {"smiles": "CCN(CC)c1ccc(/C=N/NC(=O)CNC(=O)C2COc3ccccc3O2)c(O)c1", "note": "(configuration not stated)", "Potency": "active: 11.2 µM"},
      {"smiles": "C#CCOCCOCCOCCNc1nc(N2CCN(C(=O)[C@H](CC(N)=O)n3cc([C@@H](N)C(C)C)nn3)CC2)nc(N2CCN(C(=O)[C@H](CC(N)=O)n3cc([C@@H](N)C(C)C)nn3)CC2)n1", "Potency": "inactive"},
      {"smiles": "O=C1CN(C(=O)N[C@@H](Cc2ccccc2)C(=O)N[C@@H](C(=O)O)c2ccccc2)c2ccccc2N1", "Potency": "inactive"},
      {"smiles": "CN(C)C(=O)c1cc(C(=O)c2ccc(F)cc2C(F)(F)F)c[nH]1", "Potency": "inconclusive: 31.6 µM [inhibitor, single point]"},
      {"smiles": "O=C1OCC/C1=C\\c1ccccc1O", "Potency": "inconclusive: 3.55 µM [inhibitor, single point]"},
      {"smiles": "CC(C)(C)NC(=O)C(c1ccc(-c2ccccc2)cc1)N(C[C@H]1CC[C@@H]([C@@H]2CC[C@H](CO)O2)O1)C(=O)c1ccc(C(C)(C)C)cc1", "note": "(some centres not stated)", "Potency": "inconclusive: 25.1 µM [inhibitor, single point]"},
      {"smiles": "N=c1sccn1Cc1ccc(Cl)cc1Cl", "Potency": "inconclusive: 31.6 µM [inhibitor, single point]"},
      {"smiles": "CC1C2Cc3ccc(O)cc3[C@]1(C)CCN2CCc1ccccc1", "note": "(some centres not stated)", "Potency": "inconclusive: 5.01 µM [inhibitor, single point]"},
      {"smiles": "Cc1ccc(S(=O)(=O)N2CCSC2C(=O)O)cc1", "note": "(configuration not stated)", "Potency": "inconclusive: 5.62 µM [inhibitor, single point]"},
      {"smiles": "CSc1ccc(CN(C)C(=O)CCNS(=O)(=O)c2ccc(C)c(C)c2)cc1", "Potency": "inactive"},
      {"smiles": "CCCn1c(=O)c2ccccc2n2c(SCc3cc(=O)oc4ccc5ccccc5c34)nnc12", "Potency": "inactive"},
      {"smiles": "O=S(=O)(Nc1ccc(-n2cnnn2)cc1)c1cccc(Cl)c1", "Potency": "inactive"},
      {"smiles": "Cc1cc2c(c(SCC(=O)Nc3ccc(C)c(C)c3)n1)C(=O)OC2", "Potency": "inconclusive: 20 µM [inhibitor, partial curve, poor fit]"},
      {"smiles": "COc1ccc(NC(=O)Cn2cnc3c(cnn3-c3ccc(C)c(C)c3)c2=O)c(OC)c1", "Potency": "inconclusive: 7.94 µM [inhibitor, partial curve]"},
      {"smiles": "c1ccc2c(N3CCCCC3)ncnc2c1", "Potency": "inconclusive: 11.2 µM [inhibitor, single point]"},
      {"smiles": "COc1ccc(OC)c(NC(=O)CSc2ccc3ccccc3c2)c1", "Potency": "inconclusive: 10 µM [inhibitor, partial curve]"},
      {"smiles": "CCOc1ccc(-c2nc(N)ncc2-c2ccccc2)c(O)c1", "Potency": "active: 10 µM"},
      {"smiles": "COc1cccc(/C=N/NC(=O)CNC(=O)C2COc3ccccc3O2)c1O", "note": "(configuration not stated)", "Potency": "inconclusive: 22.4 µM [inhibitor, single point]"},
      {"smiles": "CCOC(=O)c1nn(-c2cccc(OC)c2)c2nc(Nc3ccccc3)cc(=O)n12", "Potency": "active: 11.2 µM"},
      {"smiles": "O=C(CCN1C(=O)C2CCCCC2C1=O)N1CCN(S(=O)(=O)c2c(F)cccc2F)CC1", "note": "(configuration not stated)", "Potency": "inactive"},
      {"smiles": "CC1CC(C)CN(C(=O)c2ccc(S(=O)(=O)N3CCCC3)cc2)C1", "note": "(configuration not stated)", "Potency": "inactive"},
      {"smiles": "COc1ccc(OC(C)C(=O)Nc2ccc([N+](=O)[O-])cc2)cc1", "note": "(configuration not stated)", "Potency": "inactive"},
      {"smiles": "O=C1NCN(c2ccccc2)C12CCN(CCCC(c1ccc(F)cc1)c1ccc(F)cc1)CC2", "Potency": "inconclusive: 7.94 µM [inhibitor, single point]"},
      {"smiles": "COc1ccccc1C(=O)n1nc(-c2ccco2)nc1N", "Potency": "inconclusive: 22.4 µM [inhibitor, single point]"},
      {"smiles": "Oc1ccc2ccccc2c1N=Nc1ccccn1", "Potency": "active: 8.91 µM"},
      {"smiles": "Cc1nc2ccccc2nc(=O)c1NNc1ccccc1", "Potency": "inactive and inconclusive: 22.4 µM [inhibitor, single point]"},
      {"smiles": "Oc1ccc(-c2csc(-c3c[nH]c4ccccc34)n2)c(O)c1", "Potency": "inconclusive: 31.6 µM [inhibitor, single point]"},
      {"smiles": "O=C(NCc1ccc2c(c1)OCO2)C1CCC(CNc2c(N3CCCCC3)c(=O)c2=O)CC1", "note": "(configuration not stated)", "Potency": "inconclusive: 31.6 µM [inhibitor, single point]"},
      {"smiles": "Cc1ccc(NC(=O)c2ccccc2OCC(=O)c2ccccc2)cc1", "Potency": "inconclusive: 1.41 µM [inhibitor, full curve]"},
      {"smiles": "Cn1c(SCC(=O)N2CCCC2)nc2ccccc21", "Potency": "inactive"},
      {"smiles": "CCOC(=O)C1CCN(c2cc(C)nc3ccc(OC)cc23)CC1", "Potency": "inconclusive: 10 µM [inhibitor, partial curve]"},
      {"smiles": "CN(Cc1c(F)cccc1Cl)c1ccc(S(=O)(=O)N2CCOCC2)cn1", "Potency": "inconclusive: 3.98 µM [inhibitor, partial curve]"},
      {"smiles": "COc1ccc(NC(=O)C2CC2)cc1OC1CCCC1", "Potency": "inactive"},
      {"smiles": "Cc1ccc(S(=O)(=O)N2CCCCC2)cc1C(=O)NCCC1=CCCCC1", "Potency": "inconclusive: 31.6 µM [inhibitor, single point]"}
    ]}
  ]
}
